In ChEMBL document CHEMBL4888484, “Replenishing the malaria drug discovery pipeline: Screening and hit evaluation of the MMV Hit Generation Library 1 (HGL1) against asexual blood stage Plasmodium falciparum ,using a nano luciferase reporter read-out” (2022):
The whole screen tested about 150,000 compounds, of which about 540 (0.36%) showed an effect of 50% or more. Some of the results follow.

Test system: Plasmodium falciparum
Assay: Primary screen in NF54 nanoGlo assay, in single point, at 2uM, 72h; a lower Z score goes with more inhibition
Assay type: functional, Erythrocyte
Details: timepoint 72 hour

Row | SMILES | % Inhibition [%] | Z score
1 | Cc1ccc2c(c1)c(C)c1n2CC2COC1(C)O2 (stereo not drawn) | -2 | 0.47
2 | CN(C)c1ccc(CCC(=O)N2CCNC(=O)C2)cc1 | -5 | 0.79
3 | CCCC(=O)Nc1ccc2c(c1)CN(C(=O)Cc1ccccc1C)[C@H](C(=O)N(C)C)C2 | -12 | 1.96
4 | CC(CO)(CO)NC(=O)C(=O)Nc1ccccc1 | -12 | 1.64
5 | CC[C@H](C)NC(=O)CCc1nnc2c3cc(-c4ccc(OC)cc4)nn3ccn12 | -5 | 0.73
6 | CC1(C)CCN(C(=O)NCc2nnc([C@@H]3CCCO3)[nH]2)C1 | -5 | 0.89
7 | CCN(Cc1c(C)nn(C)c1Cl)CC1CCOCC1 | 14 | -1.74
8 | O=C1c2ccccc2[C@](O)(c2ccccc2)N1C1CCCC1 | -5 | 0.62
9 | CCCCN(CC(N)=O)c1ncccn1 | -5 | 0.68
10 | CN(CC1(C)COC1)C(=O)Cc1cccnc1 | 10 | -1.99
11 | CCC(C)n1ncc(NC(=O)NC2CC(C)(C)c3ccccc32)c1C (stereo not drawn) | 1 | -0.19
12 | COCCO/C(=N/C(=O)c1ccccc1F)NCc1ccccn1 | -4 | 0.53
13 | COc1cccc(CN2CC3(CCN(C(=O)c4ccoc4C)CC3)CC2=O)c1 | -7 | 1.1
14 | COCCN(CC(=O)N(Cc1ccc2c(c1)OCO2)Cc1cccs1)C(=O)Nc1cc(C(F)(F)F)cc(C(F)(F)F)c1 | 3 | -0.42
15 | Cc1nc(-c2csc(-c3cccs3)n2)n(CCO)n1 | -6 | 1
16 | Cc1noc([C@H](C)NC(=O)CCc2ccccc2Cl)n1 | -6 | 0.81
17 | CC1CC2c3cccc(C(=O)O)c3C(=O)N2C(C)c2ccccc21 (stereo not drawn) | 0 | -0.09
18 | CC1CCN(Cc2ncc(-c3ccccc3)o2)C2CCCCC12 (stereo not drawn) | -11 | 1.57
19 | Cc1cc(-c2nnn(CCn3cccn3)n2)ccc1F | 7 | -1.44
20 | CCn1ncnc1-c1nccn1CCn1ccnc1 | -3 | 0.28
21 | CCCCNC(=O)COCC(=O)Nc1ccccc1 | 2 | -0.25
22 | CC(C)C[C@H](O)C(=O)N1CCN(CCc2ccccc2)C(=O)C1 | -4 | 0.45
23 | O=C(Cc1cccc2ccccc12)N1CC[C@H](N2C(=O)COC2=O)C1 | -5 | 0.57
24 | C[C@@H](C(=O)Nc1ccc(S(=O)(=O)Nc2ccc(Cl)cc2Cl)cc1)N(c1ccccc1)S(C)(=O)=O | -10 | 1.12
25 | COCCNC(=O)C1CC(c2ccccc2)CN(C(=O)COc2ccccc2)C1 (stereo not drawn) | -1 | 0.17
26 | O=C(COc1ccc(Cl)cc1)NCC1CCOCC1 | -3 | 0.57
27 | CC(C)c1ncc(Br)c(C(=O)NCC[C@H]2CCOC2)n1 | -13 | 2.05

Row | SMILES | % Inhibition [%] | Z score
28 | CC(C)[C@@H]1CN(C)CCN1C(=O)c1cc2cccnc2[nH]1 | 3 | -0.35
29 | CN(CC(=O)N1CC[C@@]2(CCCN(CC3CCC3)C2=O)C1)c1ccccc1 | 1 | -0.18
30 | COc1ccsc1S(=O)(=O)NC[C@@H](CO)Cc1cccnc1 | 9 | -1.6
31 | O=C(NCC1CN2CCCN1CC2)c1ccc(OC2CC2(F)F)cc1 (stereo not drawn) | -4 | 0.75
32 | CN(Cc1cnc(N(C)C)nc1)C[C@H]1CCCCO1 | -13 | 1.82
33 | CN(C)S(=O)(=O)N1C[C@@H](Oc2ccccc2)C[C@H]1C(=O)N1CCOCC1 | 6 | -0.73
34 | COc1ccc2ncn(CC3(CO)CCCC3)c(=O)c2c1 | -4 | 0.53
35 | O=C(NCCc1cc(F)cc(F)c1)Nc1cnns1 | 2 | -0.18
36 | Cc1ncccc1C(=O)N1CCC(CCn2c(C)cnc2-c2ccncc2)CC1 | 2 | -0.2
37 | Cn1c(=O)cnn(-c2cc(NS(=O)(=O)Cc3ccccc3)c(Cl)cc2F)c1=O | -6 | 0.96
38 | Cc1ccccc1N1C(=O)c2ccccc2[C@]1(O)c1ccc(F)cc1 | -15 | 1.51
39 | COc1ccc(NC(=O)c2c(F)c(F)c3c(c2F)N(CCc2ccc(OC)c(OC)c2)CCS3(=O)=O)cc1 | -5 | 0.66
40 | O=S1(=O)CC[C@H](c2nc(-c3ccncc3)nn2C2CCCCC2)C1 | -1 | 0.23
41 | Cc1c(C)[n+]([O-])c([C@@H](c2ccc3c(c2)n(C)c(=O)n3C)C2C(=O)OC(C)(C)OC2=O)n1C | -5 | 0.66
42 | O=C(c1cn(CC[C@H]2CCCCN2)nn1)N1CC=C(c2ccccc2)CC1 | -2 | 0.19
43 | N[C@@H]1CCCC[C@@H]1n1cc(C(=O)N2CCCC2CC2CCCC2)nn1 (stereo partly drawn) | -12 | 1.94
44 | CC(C)Oc1cccc(CC(=O)NCc2cccnc2-n2ccnc2)c1 | -6 | 1.06
45 | O=C1CC[C@H](C(=O)NCc2ccc3c(c2)OCO3)CN1 | -11 | 2.24
46 | COc1cc(CN2CC[C@H](N3CCN(C)CC3)C2)ccc1OCC=C(C)C | -8 | 1.13
47 | CC(C)(C)c1nccn1Cc1nc2ccccc2s1 | -3 | 0.45
48 | C[C@H](Nc1ccc2c(c1)CCC2)C(=O)N1CCNC1=O | -6 | 0.78
49 | COc1cc(C)c(-c2nc(CN3CCO[C@@H](CCN)C3)c(C)o2)cc1C | -3 | 0.32
50 | COc1ccc(N2C[C@@H](C(=O)N3CCN(S(=O)(=O)c4ccc(F)c(F)c4)CC3)CC2=O)c(OC)c1 | -4 | 0.67
51 | CN1C[C@@H](O)CNS(=O)(=O)c2ccc(-c3cnn(C)c3)cc2O[C@H]2CN(Cc3cccn3C)C[C@H]21 | 16 | -2.57
52 | CCc1ccc(C(COC)NS(=O)(=O)CC2(C)CC2(F)F)o1 (stereo not drawn) | -1 | 0.11
53 | CCCCNC(=O)Nc1c(C)c(C)nn1CCO | -11 | 1.26
54 | Cc1cc(CCCOc2c(C)cc(C#N)cc2C)on1 | 18 | -2.34
